Experimental data taken from PubChem BioAssay AID1259400 (National Center for Advancing Translational Sciences (NCATS), 2018).
Among all 350,000 compounds or so, about 2,100 (0.6%) were called active. The shares of active, inactive and inconclusive entries below differ from those in the screen.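 How the source made its calls: active means activity change of -60% or lower, but not beyond a set lower limit; inconclusive means change between -60% and -40%, or beyond the set limit; inactive means change above -40%.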
On the % scale 0 is the no-effect control and ±100 the full control effect.

Each compound was assayed against Relaxin receptor 1 (Homo sapiens) (UniProt Q9HBX9) (assay: qHTS Assay for Antagonists of the Relaxin Receptor RXFP1). Details: HEK293-RXFP1, relaxin-stimulated cAMP HTRF, 30 min; at 57.5 µM; hits give low values.
Sequence of UniProt Q9HBX9 (Q9HBX9 whole entry, looked up): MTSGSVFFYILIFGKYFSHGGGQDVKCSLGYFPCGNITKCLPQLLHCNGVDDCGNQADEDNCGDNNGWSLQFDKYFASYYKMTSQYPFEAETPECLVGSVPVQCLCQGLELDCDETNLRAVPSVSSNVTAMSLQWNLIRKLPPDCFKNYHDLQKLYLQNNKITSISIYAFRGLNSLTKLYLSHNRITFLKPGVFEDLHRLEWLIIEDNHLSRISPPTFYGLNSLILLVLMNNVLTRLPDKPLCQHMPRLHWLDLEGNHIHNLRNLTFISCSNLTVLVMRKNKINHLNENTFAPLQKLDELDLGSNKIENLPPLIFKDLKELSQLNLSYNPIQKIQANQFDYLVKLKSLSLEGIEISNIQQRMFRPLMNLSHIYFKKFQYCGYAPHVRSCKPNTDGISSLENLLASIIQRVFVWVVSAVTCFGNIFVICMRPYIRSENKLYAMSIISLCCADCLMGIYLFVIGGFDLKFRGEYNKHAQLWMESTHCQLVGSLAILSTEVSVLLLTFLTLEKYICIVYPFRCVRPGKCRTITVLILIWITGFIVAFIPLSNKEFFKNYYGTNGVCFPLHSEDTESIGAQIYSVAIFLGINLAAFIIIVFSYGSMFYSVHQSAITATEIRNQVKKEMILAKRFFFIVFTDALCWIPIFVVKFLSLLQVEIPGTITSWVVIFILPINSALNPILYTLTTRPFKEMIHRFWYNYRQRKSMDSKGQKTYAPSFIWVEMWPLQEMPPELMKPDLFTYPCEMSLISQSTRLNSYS
Cc1cccc(CN2C(=O)CN=C(c3ccccc3Cl)c3cc(Cl)ccc32)c1 was tested, and the activity change, negative = inhibition was inactive: -17%. O=C(O)CNC1c2ccccc2CSc2ccccc21 (centres undefined) was tested, and the activity change, negative = inhibition was active: -63.2%. For CCN(CC)C(=O)c1ccc(NC(=O)c2cc(S(=O)(=O)N3CCCCCC3)ccc2OC)cc1, the activity change, negative = inhibition was inactive: 5.39%. With CCOC(=O)C1(CCc2ccccc2)CCN(Cc2cccc3cnccc23)CC1 the activity change, negative = inhibition was active: -83.2%. C[C@H](N)C(=O)c1ccccc1 was tested, and the activity change, negative = inhibition was inactive: 14.2%. With CCc1ccc(CN2CCN(Cc3cc(Br)ccc3O)CC2)cc1 the activity change, negative = inhibition was inconclusive: -42.1%. With COc1ccc(CN2CC=C(c3ccc(F)cc3)CC2)cc1Br the activity change, negative = inhibition was inactive: -11.4%. CC1CC2(O)c3nonc3CCC2N1O (centres undefined) was tested, and the activity change, negative = inhibition was inactive: 9.8%. CC(=O)c1ccc2c(c1)C1C(Cl)C(Sc3ccccc3[N+](=O)[O-])CC1C(c1ccccc1)N2 (centres undefined) was tested, and the activity change, negative = inhibition was active: -81.1%. For Nc1nonc1C(=O)N/N=C/c1ccc([N+](=O)[O-])o1, the activity change, negative = inhibition was inconclusive: -43.2%. CC1=CC2/C=C(\C)CCC(O)C(O)/C=C/C(=O)C23C(=O)NC(CC(C)C)C3C1C (centres undefined) was tested, and the activity change, negative = inhibition was inconclusive: -50.7%. O=C(c1cc(-c2ccccc2)nc2ccccc12)N1CCC2(CC1)OCCO2 was tested, and the activity change, negative = inhibition was inactive: -2.05%. In the case of O=[N+]([O-])c1cccc(CN2CCN(Cc3ccc(Cl)cc3)CC2)c1, the activity change, negative = inhibition is reported as inconclusive: -49.5%. For CN(C)C(=O)Oc1cccc(-c2cn3cc(Cl)ccc3n2)c1, the activity change, negative = inhibition was inactive: 1.95%. CCOC(=O)C1(CCOc2ccccc2)CCN(C(C)CSC)CC1 (centres undefined) was tested, and the activity change, negative = inhibition was inactive: -1.73%. With COc1ccc(OC)c(CCNCc2c(C(=O)O)c(C)n(Cc3ccc(F)cc3Cl)c2C)c1 the activity change, negative = inhibition was active: -63%. Cc1ccc(-n2cc(CNC(C)Cc3cnccn3)c(-c3cccc(C)c3)n2)cc1 (centres undefined) was tested, and the activity change, negative = inhibition was inconclusive: -40.6%. With Cc1[nH]c2ccc(OC(F)(F)F)cc2c1CCNCc1cccc([N+](=O)[O-])c1 the activity change, negative = inhibition was inconclusive: -41.9%. For CCC12CN3CCN(CC(C3)/C1=N/NC(=O)c1ccncc1)C2, the activity change, negative = inhibition was inconclusive: -42.3%. With CCOC(=O)c1c(C)n(Cc2ccccc2)c2ccc(OCC(O)CNC(C)(C)C)cc12 (centres undefined) the activity change, negative = inhibition was inconclusive: -50.2%. For CC#C[C@]1(O)CC[C@H]2[C@@H]3C[C@H](C)C4=CC(=O)CC[C@]4(C)[C@H]3CC[C@@]21C, the activity change, negative = inhibition was inconclusive: -49.5%. For CC1CCC(C(C)C)C(OC(=O)COC(=O)c2ccccc2N)C1 (centres undefined), the activity change, negative = inhibition was inactive: -6.13%. With COC(=O)CN1C(=O)CN=C(c2ccccc2Cl)c2cc(Br)ccc21 the activity change, negative = inhibition was inactive: -17.3%. With Cc1nc2ccccc2c(=O)n1/N=C/c1cc(Br)cc(Br)c1O the activity change, negative = inhibition was active: -78.9%.
